Source: the supplement of paper PMC8728848
The other results are listed elsewhere or left out.

What was measured:
Assay in all cases: glycan array binding signal (z-score within array); higher = stronger binding
Conditions in all cases: glycan notation: IUPAC condensed, linker removed
[1] = biological target: Neu5Ac(a2-3)Gal(b1-3)GlcNAc6S
Method in brief: (§1)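 The binding signal is a Z-score computed within each array and averaged over linkers. Arrays of the same protein sequence at different concentrations or buffers were also averaged together. Data originate from 3228 arrays in the Consortium for Functional Glycomics database, kept only where the protein sequence was available.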

[2] = biological target: Neu5Ac(a2-3)Gal(b1-3)[Fuc(a1-4)]GlcNAc
Method in brief: as §1

[3] = biological target: Neu5Ac(a2-3)Gal(b1-3)[Fuc(a1-4)]GlcNAc(b1-3)Gal(b1-3)[Fuc(a1-4)]GlcNAc
Method in brief: as §1

[4] = biological target: Neu5Ac(a2-3)Gal(b1-3)[Fuc(a1-4)]GlcNAc(b1-3)Gal(b1-4)[Fuc(a1-3)]GlcNAc
Method in brief: as §1

[5] = biological target: Neu5Ac(a2-3)Gal(b1-3)[GlcNAc(b1-6)]GalNAc
Method in brief: as §1

[6] = biological target: Neu5Ac(a2-3)Gal(b1-3)[Neu5Ac(a2-6)]GalNAc
Method in brief: as §1

[7] = biological target: Neu5Ac(a2-3)Gal(b1-3)[Neu5Ac(a2-6)]GlcNAc(b1-3)[Fuc(a1-3)[Gal(b1-4)]GlcNAc(b1-6)]Gal(b1-4)Glc
Method in brief: as §1

[8] = biological target: Neu5Ac(a2-3)Gal(b1-3)]Neu5Ac(a2-3)Gal(b1-4)]GlcNAc
Method in brief: as §1

Neu5Ac(a2-3)Gal(b1-4)Glc = biological target: Neu5Ac(a2-3)Gal(b1-4)Glc
Method in brief: as §1

[9] = biological target: Neu5Ac(a2-3)Gal(b1-4)GlcNAc
Method in brief: as §1

[10] = biological target: Neu5Ac(a2-3)Gal(b1-4)GlcNAc(b1-2)Man
Method in brief: as §1

[11] = biological target: Neu5Ac(a2-3)Gal(b1-4)GlcNAc(b1-2)Man(a1-3)[GlcNAc(b1-4)][Neu5Ac(a2-3)Gal(b1-4)GlcNAc(b1-2)Man(a1-6)]Man(b1-4)GlcNAc(b1-4)GlcNAc
Method in brief: as §1

[12] = biological target: Neu5Ac(a2-3)Gal(b1-4)GlcNAc(b1-2)Man(a1-3)[Neu5Ac(a2-3)Gal(b1-4)GlcNAc(b1-2)Man(a1-6)]Man(b1-4)GlcNAc(b1-4)GlcNAc
Method in brief: as §1

[13] = biological target: Neu5Ac(a2-3)Gal(b1-4)GlcNAc(b1-2)Man(a1-3)[Neu5Ac(a2-3)Gal(b1-4)GlcNAc(b1-2)Man(a1-6)]Man(b1-4)GlcNAc(b1-4)[Fuc(a1-6)]GlcNAc
Method in brief: as §1

[14] = biological target: Neu5Ac(a2-3)Gal(b1-4)GlcNAc(b1-2)Man(a1-3)[Neu5Ac(a2-6)Gal(b1-4)GlcNAc(b1-2)Man(a1-6)]Man(b1-4)GlcNAc(b1-4)GlcNAc
Method in brief: as §1

[15] = biological target: Neu5Ac(a2-3)Gal(b1-4)GlcNAc(b1-2)[Neu5Ac(a2-3)Gal(b1-4)GlcNAc(b1-4)]Man(a1-3)[GlcNAc(b1-4)][Neu5Ac(a2-3)Gal(b1-4)GlcNAc(b1-2)[Neu5Ac(a2-3)Gal(b1-4)GlcNAc(b1-6)]Man(a1-6)]Man(b1-4)GlcNAc(b1-4)GlcNAc
Method in brief: as §1

[16] = biological target: Neu5Ac(a2-3)Gal(b1-4)GlcNAc(b1-2)[Neu5Ac(a2-3)Gal(b1-4)GlcNAc(b1-4)]Man(a1-3)[GlcNAc(b1-4)][Neu5Ac(a2-3)Gal(b1-4)GlcNAc(b1-4)Man(a1-6)]Man(b1-4)GlcNAc(b1-4)GlcNAc
Method in brief: as §1

[17] = biological target: Neu5Ac(a2-3)Gal(b1-4)GlcNAc(b1-2)[Neu5Ac(a2-3)Gal(b1-4)GlcNAc(b1-6)]Man(a1-6)[Neu5Ac(a2-3)Gal(b1-4)GlcNAc(b1-2)Man(a1-3)][GlcNAc(b1-4)]Man(b1-4)GlcNAc(b1-4)GlcNAc
Method in brief: as §1

[18] = biological target: Neu5Ac(a2-3)Gal(b1-4)GlcNAc(b1-3)Gal
Method in brief: as §1

[19] = biological target: Neu5Ac(a2-3)Gal(b1-4)GlcNAc(b1-3)Gal(b1-3)GlcNAc
Method in brief: as §1

[20] = biological target: Neu5Ac(a2-3)Gal(b1-4)GlcNAc(b1-3)Gal(b1-4)GlcNAc
Method in brief: as §1

[21] = biological target: Neu5Ac(a2-3)Gal(b1-4)GlcNAc(b1-3)Gal(b1-4)GlcNAc(b1-2)Man(a1-3)[Neu5Ac(a2-3)Gal(b1-4)GlcNAc(b1-3)Gal(b1-4)GlcNAc(b1-2)Man(a1-6)]Man(b1-4)GlcNAc(b1-4)GlcNAc
Method in brief: as §1

[22] = biological target: Neu5Ac(a2-3)Gal(b1-4)GlcNAc(b1-3)Gal(b1-4)GlcNAc(b1-3)Gal(b1-4)GlcNAc
Method in brief: as §1

[23] = biological target: Neu5Ac(a2-3)Gal(b1-4)GlcNAc(b1-3)Gal(b1-4)GlcNAc(b1-3)Gal(b1-4)GlcNAc(b1-2)Man(a1-3)[Neu5Ac(a2-3)Gal(b1-4)GlcNAc(b1-3)Gal(b1-4)GlcNAc(b1-3)Gal(b1-4)GlcNAc(b1-2)Man(a1-6)]GalNAc
Method in brief: as §1

[24] = biological target: Neu5Ac(a2-3)Gal(b1-4)GlcNAc(b1-3)Gal(b1-4)GlcNAc(b1-3)GalNAc
Method in brief: as §1

[25] = biological target: Neu5Ac(a2-3)Gal(b1-4)GlcNAc(b1-3)Gal(b1-4)GlcNAc(b1-3)[Neu5Ac(a2-3)Gal(b1-4)GlcNAc(b1-3)Gal(b1-4)GlcNAc(b1-6)]GalNAc
Method in brief: as §1

[26] = biological target: Neu5Ac(a2-3)Gal(b1-4)GlcNAc(b1-3)Gal(b1-4)GlcNAc(b1-6)[Gal(b1-3)]GalNAc
Method in brief: as §1

[27] = biological target: Neu5Ac(a2-3)Gal(b1-4)GlcNAc(b1-3)Gal(b1-4)[Fuc(a1-3)]GlcNAc
Method in brief: as §1

[28] = biological target: Neu5Ac(a2-3)Gal(b1-4)GlcNAc(b1-3)GalNAc
Method in brief: as §1

[29] = biological target: Neu5Ac(a2-3)Gal(b1-4)GlcNAc(b1-3)[Neu5Ac(a2-3)Gal(b1-4)GlcNAc(b1-6)]GalNAc
Method in brief: as §1

B1: Mermaid3 (Stilbonema majum) (protein)
chain: MGSSHHHHHHSSGLVPRGSHMAASGWLRSPQGTVVKLYRRSLSWSKADEFCKDVDGRLVVDRTADMHLFLIKNVLKEKKSRVWVGLRRTASHSRTWIWSDGTRQNEGDLDANLWLRDEPNDAAGEEECALFMYSPWEKAWGLNDYLCRGGCRNYQFICEKWIR
glycan array binding signal (z-score) [1]: 2.46
glycan array binding signal (z-score) [2]: 0.308
glycan array binding signal (z-score) [3]: 0.762
glycan array binding signal (z-score) [4]: 1.63
glycan array binding signal (z-score) [5]: -0.478
glycan array binding signal (z-score) [6]: -0.432
glycan array binding signal (z-score) [7]: -0.212
glycan array binding signal (z-score) [8]: -0.471
glycan array binding signal (z-score) (Neu5Ac(a2-3)Gal(b1-4)Glc): 0.506
glycan array binding signal (z-score) [9]: 0.245
glycan array binding signal (z-score) [10]: 4.26
glycan array binding signal (z-score) [11]: -0.482
glycan array binding signal (z-score) [12]: -0.562
glycan array binding signal (z-score) [13]: -0.558
glycan array binding signal (z-score) [14]: -0.284
glycan array binding signal (z-score) [15]: -0.492
glycan array binding signal (z-score) [16]: -0.416
glycan array binding signal (z-score) [17]: -0.059
glycan array binding signal (z-score) [18]: -0.802
glycan array binding signal (z-score) [19]: -0.362
glycan array binding signal (z-score) [20]: 0.306
glycan array binding signal (z-score) [21]: 0.226
glycan array binding signal (z-score) [22]: -0.653
glycan array binding signal (z-score) [23]: 1.96
glycan array binding signal (z-score) [24]: -0.589
glycan array binding signal (z-score) [25]: -0.289
glycan array binding signal (z-score) [26]: 0.035
glycan array binding signal (z-score) [27]: -0.664
glycan array binding signal (z-score) [28]: -0.602
glycan array binding signal (z-score) [29]: -0.522
